Screen size: about 200,000 compounds; about 4,500 (2.2%) were called active. Inconclusive results, whose numbers are uncertain, are shown with a selection of clear calls. Calls follow the shape of the dose curve; as a rule, active = well fitted inhibition curve with a large enough effect; inconclusive = small, poorly fitted or top-dose-only effect, or effect the other way; inactive = flat fitted curve, though single readings scatter. A potency beside an inconclusive call is a rough fit, not a confirmed value.
Each compound was assayed against Cruzipain (Trypanosoma cruzi) (UniProt P25779) (assay: qHTS Assay for Promiscuous and Specific Inhibitors of Cruzain (without detergent)). Settings: purified cruzain, Z-FR-AMC fluorescence, no detergent.
Outline: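 Detergent-free condition (0.00005% Triton X-100) in acetate buffer pH 5.5 with DTT. 1.5 nM enzyme and compound were pre-mixed 15 min, then 2 uM Z-FR-AMC substrate added; reaction progress from fluorescence change between first and third reads (60 s).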
Also: nearly all actives have a fitted effect of over 40% in size.
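For max response, negative = inhibition in this document: plate controls were enzyme without inhibitor for no effect and buffer without enzyme for full effect.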
Potency is read from the fitted curve at half-maximal effect; tags tell the direction and shape of the fitted curve.

UniProt P25779, sequence (P25779 whole entry, looked up): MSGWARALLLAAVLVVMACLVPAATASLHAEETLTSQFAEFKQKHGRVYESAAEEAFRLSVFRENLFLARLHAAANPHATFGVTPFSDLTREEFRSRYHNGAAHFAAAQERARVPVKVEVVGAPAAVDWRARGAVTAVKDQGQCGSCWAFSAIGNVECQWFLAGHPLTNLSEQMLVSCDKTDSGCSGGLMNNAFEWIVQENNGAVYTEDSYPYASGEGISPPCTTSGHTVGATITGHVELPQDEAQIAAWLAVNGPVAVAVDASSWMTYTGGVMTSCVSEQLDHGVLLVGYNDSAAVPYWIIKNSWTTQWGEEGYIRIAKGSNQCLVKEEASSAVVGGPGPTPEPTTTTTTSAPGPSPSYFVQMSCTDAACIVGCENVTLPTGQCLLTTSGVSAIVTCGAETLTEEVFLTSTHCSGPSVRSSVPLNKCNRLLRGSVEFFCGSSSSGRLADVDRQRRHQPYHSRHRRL

| SMILES | Potency | max response, negative = inhibition |
| --- | --- | --- |
| O=C(NCC(=O)N(c1ccc(F)cc1)C(C(=O)NCC1CCCO1)c1ccccc1)c1ccco1 (stereo unspecified) | inconclusive: 39.8 µM [activator, single point] | – |
| CCCC(=O)OC1(C(=O)CO)CCC2C3CCC4=CC(=O)CCC4(C)C3C(O)CC21C (stereo unspecified) | inconclusive: 39.8 µM [activator, single point] | – |
| Cc1cc(=O)[nH]c(SCCOc2ccc3c(c2)CCC3)n1 | inconclusive: 39.8 µM [inhibitor, single point] | – |
| CCOC(=O)c1cnn(-c2ccc(C(=O)Nc3cc(OC)c(OC)c(OC)c3)cc2)c1N | – | inactive: -7.03% |
| O=C(CSc1ccccc1)N1CCc2c([nH]c3ccccc23)C1c1ccc(F)cc1 (stereo unspecified) | inconclusive: 39.8 µM [inhibitor, single point] | – |
| CC1CCN(S(=O)(=O)c2cn(CC(=O)Nc3cccc(C(F)(F)F)c3)c(=O)c3ccccc23)CC1 | inconclusive: 39.8 µM [inhibitor, single point] | – |
| N#C/C(=C\c1cn(CCOc2ccccc2)c2ccccc12)C(=O)NCc1cccs1 | inconclusive: 15.8 µM [inhibitor, single point] | – |
| Cc1nc(NC(=O)c2ccccc2)sc1Cc1ccc2c(c1)OCO2 | inconclusive: 31.6 µM [inhibitor, single point] | – |
| CCC(=O)N1CCc2cc(Br)cc(S(=O)(=O)N3CCC(C(=O)NCCCOC(C)C)CC3)c21 | inconclusive: 31.6 µM [activator, single point] | – |
| Cc1noc(/C=C/c2cccs2)c1S(=O)(=O)N1CCC(C(=O)Nc2ccc(F)c(Cl)c2)CC1 | inconclusive: 39.8 µM [inhibitor, single point] | – |
| COc1ccc(C(F)(F)F)cc1NC(=O)c1sc2nc(-c3cccs3)ccc2c1N | – | inactive: -12.3% |
| CC(=O)c1ccc(N2CCN(c3ncnc4c3c(-c3ccccc3)cn4-c3cccc(C)c3)CC2)cc1 | inconclusive: 2.51 µM [inhibitor, partial curve] | – |
| COC(=O)Cc1c(C)c2cc(Cl)c(OC(=O)c3ccco3)cc2oc1=O | inconclusive: 20 µM [activator, partial curve] | – |
| COc1ccccc1NC(=O)C1=C(C)Nc2c(C(=O)Nc3ccc(F)cc3)cnn2C1c1cccc([N+](=O)[O-])c1 (stereo unspecified) | inconclusive: 25.1 µM [inhibitor, partial curve, poor fit] | – |
| CCCCc1n[nH]c2c1/C(=N/O)CC(c1ccccc1)C2 (stereo unspecified) | – | inactive: -13.5% |
| O=C(/C=C/c1ccccc1)Nc1nnc(SCC(=O)c2ccc3ccccc3c2)s1 | active: 6.31 µM | – |
| O=C(C1CC1)N1CCc2cc(Br)cc(S(=O)(=O)N3CCN(c4cccc(C(F)(F)F)c4)CC3)c21 | – | inactive: 7.49% |
| Cc1ccc(C(=O)O)cc1-c1ccc(/C=C2/NC(=O)N(c3ccccc3)C2=O)o1 | inconclusive: 39.8 µM [activator, single point] | – |
| OCCN(CO)CO | – | inactive: -0.459% |
| O=C1CCCC(=O)N1c1ccc(N2CCN(c3ccc([N+](=O)[O-])cc3)CC2)c([N+](=O)[O-])c1 | inconclusive: 39.8 µM [inhibitor, single point] | – |
| CCOc1ccccc1NC(=O)CSc1nc2c(oc3ccccc32)c(=O)n1-c1ccc(C)c(C)c1 | – | inactive: 2.19% |

| SMILES | Potency | max response, negative = inhibition |
| --- | --- | --- |
| Cc1ccc(Nc2c(-c3c[nH]c4ccccc34)nc3cc(C)ccn23)cc1 | inconclusive: 39.8 µM [inhibitor, single point] | – |
| CCOC(=O)Cn1c(=O)oc2cc(S(=O)(=O)N3CCN(c4cccc(C)c4C)CC3)ccc21 | – | inactive: -16.8% |
| O=C(Nc1ccccc1)c1nnsc1S(=O)(=O)c1ccc(Cl)cc1 | – | inactive: -8.46% |
| Cc1ccc(S(=O)(=O)N2CCN(C(=O)c3cc4c(C)nn(-c5ccccc5C)c4s3)CC2)cc1 | inconclusive: 10 µM [inhibitor, partial curve] | – |
| Nc1nc(-c2ccccc2)c(N=Nc2cccc3ccccc23)s1 | inconclusive: 39.8 µM [inhibitor, single point] | – |
| Cc1cc2cc(CN(Cc3nnnn3C3CCCCC3)CC3CCCO3)c(=O)[nH]c2cc1C (stereo unspecified) | inconclusive: 39.8 µM [activator, single point] | – |
| Nc1ccc(-c2nc3ccccc3[nH]2)cc1 | – | inactive: -29.7% |
| Cc1ccc(Nc2nc(-c3sc(NC(=O)c4ccccc4)nc3C)cs2)cc1 | active: 31.6 µM | – |
| O=C(COC(=O)c1oc2ccccc2c1COc1ccccc1)NCCN1C(=O)CSC1=O | inconclusive: 39.8 µM [activator, single point] | – |
| COc1ccc(-c2cc(-c3ccccc3)n3ncnc3n2)cc1 | inconclusive: 20 µM [activator, single point] | – |
| Cc1nc(SCC(=O)N2CC(=O)Nc3ccccc32)c2c(C)c(C)sc2n1 | inconclusive: 39.8 µM [activator, single point] | – |
| CCN(CC)c1ccc(NC(=O)c2cccc(C)c2)cc1S(=O)(=O)Nc1ccccc1OC | inconclusive: 39.8 µM [inhibitor, single point] | – |
| N#Cc1nc(-c2cccs2)oc1NCc1ccc(Cl)cc1 | inconclusive: 10 µM [activator, partial curve] | – |
| COc1cc(C(=O)Nc2ccc3nc(SCc4ccc(C)cc4)sc3c2)cc(OC)c1OC | – | inactive: 28.2% |
| O=C1CCCC2C3CC(CN12)C1CCCCN1C3 (stereo unspecified) | – | inactive: 2.1% |
| c1ccc2c(c1)ccc1cc3c(ccc4ccccc43)cc12 | – | inactive: -10.3% |
| CCCNc1c(NC(=O)c2ccc(OCCC)cc2)c(=O)oc2ccccc12 | inconclusive: 1.58 µM [activator, partial curve, poor fit] | – |
| O=C(CSc1nccn1-c1ccc(F)cc1)Nc1ccc(OC(F)(F)F)cc1 | inconclusive: 39.8 µM [activator, single point] | – |
| COc1ccc2c(c1)-c1nc(/N=C/c3c(O)ccc4ccccc34)sc1CC2 | inconclusive: 7.94 µM [inhibitor, single point] | – |
| COc1cc2c(cc1NC(=O)CSc1nnc(Cc3cccs3)n1Cc1ccco1)oc1ccccc12 | inconclusive: 39.8 µM [inhibitor, single point] | – |

— PubChem BioAssay AID1476 (National Center for Advancing Translational Sciences (NCATS), 2009)
